# Experimental data published in PubChem BioAssay AID1963576 (National Center for Advancing Translational Sciences (NCATS), 2024).
# The campaign covered roughly 46,000 compounds. About 60 (0.1%) were called active. Not shown: some 3% with an inconclusive outcome. The call rests on the fitted dose curve; in most records, active means well fitted inhibition curve with a large enough effect; inconclusive means small, poorly fitted or top-dose-only effect; inactive means no such curve, though single readings can be large or run the other way. This is one part of the list.
# Assay: Primary qHTS assay for Inhibitors of ovarian cancer metastasis using an organotypic tumor microenvironment (TME) model. Further: nearly all actives have a fitted effect of over 65% in size.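 On activity change, negative = inhibition: plate controls were DMSO wells for no effect and tomatine positive control wells for full effect.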
# Conditions: SKOV3ip1-GFP adhesion/invasion on 3D omental model, fluorescence; series mostly up to 45.8 µM; activity change, negative = inhibition: at the top concentration
# Method in brief: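 Adhesion/invasion was scored as fixed GFP-labeled SKOV3ip1 cell counts (488/509 nm), normalized to DMSO and tomatine controls. Cancer cells in serum-free medium, with four compound doses (0.36-46 umol/L), sat 2 hr at RT then 16 hr at 37 C on a 48 hr fibroblast/mesothelial/ECM culture.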
Compound,"activity change, negative = inhibition",outcome
O=c1c2sc3ccccc3c2n(Cc2ccccc2F)c(=O)n1-c1ccccc1Cl,inactive: -1.54%,
CCOCC(=O)Nc1ccc(-c2cn3c(C)csc3n2)cc1,,inactive
COc1ccccc1N1CCN(c2ccc(=O)n(CC(=O)O)n2)CC1,,inactive
Cc1ccc2c(c1)cc(C(=O)NCc1ccc(F)cc1)n2C,inactive: 0.697%,
Cc1cccc2cc(CN(C(=O)c3cccc(Cl)c3)c3ccccc3)c(=O)[nH]c12,inactive: -4.36%,
CCN(C(=O)CSc1nc(-c2ccccc2)no1)c1cccc(C)c1,inactive: -22.5%,
COc1cccc(C2CC(=O)Nc3c2c(=O)[nH]c2ncnn32)c1OC (stereo not given),,inactive
CNC(=O)C1CCC(Cn2c(=O)c3sccc3n(CC(=O)N3CCCC3)c2=O)CC1 (stereo not given),inactive: 3.81%,
COc1cccc(CNc2ncnc3c2nnn3C)c1,inactive: -8.24%,
COc1ccccc1Nc1nn2c(=O)c3ccc(C(=O)NC4CCC(C)CC4)cc3nc2s1 (stereo not given),inactive: -1.31%,
COc1ccccc1C(=O)Nc1cccc(OCc2cc(=O)n3c4c(sc3n2)CCCC4)c1,,inactive
O=C(C1CCN(S(=O)(=O)c2ccc(Br)s2)CC1)N1CCN(c2ccc(F)cc2)CC1,inactive: 1.92%,
CCOc1ccc(C2C(C(N)=O)=C(C)Nc3nc(-c4ccc(OC)cc4)nn32)cc1 (stereo not given),inactive: 2.62%,
CCc1nc(N)nc(N)c1-c1ccc(Cl)cc1,inactive: -18.7%,
O=C(OCc1cc(=O)n2nc(C3CC3)sc2n1)c1ccc(NC(=O)c2ccccc2Cl)cc1,inactive: -2.69%,
COc1ccc(C(=O)Nc2ccccc2)cc1S(=O)(=O)Nc1ccc(Br)cc1,inactive: -12%,
CC(C)c1ccc(S(=O)(=O)c2nnn3c2nc(NCc2cccs2)c2sccc23)cc1,inactive: 6.18%,
O=C(NCC(c1ccc2c(c1)OCO2)N1CCN(c2ccccc2)CC1)C(=O)Nc1ccccc1 (stereo not given),inactive: -0.367%,
O=c1c2sc3ccccc3c2n(Cc2ccc(F)cc2)c(=O)n1Cc1ccco1,,inactive
Cc1cc2ccccc2n1CCNC(=O)c1ccccc1F,,inactive
CCc1ccc(C2=C(C)C(N3CCC(C(=O)Nc4ccc(F)cc4)CC3)=NS2(=O)=O)cc1,,inactive
O=C(Nc1cccc(C(=O)N2CCN(c3ccccc3)CC2)c1)c1nsc2ccccc12,inactive: 8.34%,
O=C(Nc1ccc2nc(SCC(=O)N3CCCc4ccccc43)sc2c1)c1ccccc1F,inactive: 0.442%,
Cc1ccc(NC(=O)CCn2nc(-c3ccccc3)c3ccccc3c2=O)c(C)c1,inactive: -9.95%,
Fc1ccc(Nc2nc(-c3cccc(Cl)c3)c3c(n2)-c2ccccc2OC3)cc1,inactive: -17.9%,

Compound,"activity change, negative = inhibition",outcome
CCc1ccc2oc(C(=O)Nc3cc(Cl)ccc3OC)cc(=O)c2c1,inactive: 12.3%,
Cc1c(C(=O)Nc2ccccc2)sc2nc(-c3cc4ccccc4oc3=O)[nH]c(=O)c12,,inactive
CCC(C)Sc1c(C(C)C)cnc2c1c(=O)n(C)c(=O)n2C (stereo not given),,inactive
COc1ccc(-c2cc(C(F)(F)F)c(C#N)c(SCC(=O)Nc3ccccc3F)n2)cc1,inactive: -17.9%,
COc1ccc2c(c1)c1c(c(=O)n(-c3ccccc3C)c(=O)n1CC(=O)N1CCCC1)n2C,inactive: 4.13%,
COc1ccc(C2C=C(c3ccccc3)Nc3nc(NC(=O)/C=C/c4ccc(F)cc4)nn32)cc1 (stereo not given),inactive: 3.32%,
CCOc1ccc(CNC(=O)C2CCN(S(=O)(=O)c3cn(C)cn3)CC2)cc1OC,inactive: -2.1%,
COc1cccc(CN2C(=O)CN(C3CCCCC3)C(=O)C2c2ccc(OC)c(OC)c2)c1 (stereo not given),inactive: 2.41%,
COc1ccc(CNC(=O)c2cnn(-c3ccc(C)cc3)c2-n2cccc2)cc1OC,inactive: 0.793%,
CCOc1ccc(S(=O)(=O)N2CCC(N3CCN(Cc4ccc(C)cc4)C(=O)C3=O)CC2)cc1,,inactive
COc1ccccc1C(=O)Nc1ccc(OCc2cc(=O)n3ccc(C)cc3n2)cc1,inactive: -6.29%,
COc1cccc(CNc2nccn(-c3ccc(OC)c(OC)c3)c2=O)c1,inactive: 26.3%,
Cc1nn(C)c2c1c(-c1ccccc1)cc(=O)n2Cc1ccc(Cl)cc1,,inactive
COc1ccc(-n2c(/C=C/c3c(C)[nH]c4ccccc34)nc3ccccc3c2=O)cc1,inactive: -18.7%,
CCN(C(=O)c1cn(-c2ccc(OC)cc2)c(=O)c2ccccc12)c1cccc(Cl)c1,,inactive
Cc1nn(C(=O)c2ccccc2)c(C)c1S(=O)(=O)N1CCCCCC1,,inactive
CCn1c(=N)c(C(=O)NC2CCCC2)cc2c(=O)n3ccccc3nc21,inactive: -8.83%,
O=C(OCc1cccc(C(F)(F)F)c1)c1ccc(-c2nnn(Cc3ccc(F)cc3)n2)cc1,inactive: -17%,
COCc1cc(C)nc2sc3c(c12)NC(c1ccc(O)cc1)N(c1ccc(C)cc1)C3=O (stereo not given),inactive: -8.73%,
O=C(Cn1c2ncccc2c(=O)n1-c1ccccc1)Nc1ccc(Cl)cc1C(F)(F)F,inactive: -2.73%,
COc1ccc(C)cc1-n1c(-c2ccc(C)cc2)cc2c1CC(C)(C)CC2=O,inactive: -2.4%,
COc1ccccc1NC(=O)c1sc2ncn(Cc3ccccc3Cl)c(=O)c2c1C,inactive: 8.16%,
CCOC(=O)C1CCCN(S(=O)(=O)c2ccc3[nH]c(=O)oc3c2)C1 (stereo not given),inactive: 6.51%,
COc1ccc2c(c1)C=C(C(=O)NCc1cc(Br)ccc1OC)CO2,inactive: 1.6%,
CCCCCn1cc2c(c1-c1ccc(Cl)cc1)c(=O)n(C)c(=O)n2C,inactive: -9.25%,
